Assay results published in PMC4336329 (PLoS ONE, 2015).
The campaign covered roughly 310,000 compounds. About 14,000 (4.5%) showed an effect of 50% or more. Effects have a minus sign here. The list shows a part of the results.

target: human ether-à-go-go-related gene (hERG) potassium channel (human, UniProt Q12809); experiment: primary screen, population patch clamp on CHO cells stably expressing hERG
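Also: peak tail current of the secondary pulse compared with the same well before compound.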

Chain of human ether-à-go-go-related gene (hERG) potassium channel (Q12809 whole entry, looked up): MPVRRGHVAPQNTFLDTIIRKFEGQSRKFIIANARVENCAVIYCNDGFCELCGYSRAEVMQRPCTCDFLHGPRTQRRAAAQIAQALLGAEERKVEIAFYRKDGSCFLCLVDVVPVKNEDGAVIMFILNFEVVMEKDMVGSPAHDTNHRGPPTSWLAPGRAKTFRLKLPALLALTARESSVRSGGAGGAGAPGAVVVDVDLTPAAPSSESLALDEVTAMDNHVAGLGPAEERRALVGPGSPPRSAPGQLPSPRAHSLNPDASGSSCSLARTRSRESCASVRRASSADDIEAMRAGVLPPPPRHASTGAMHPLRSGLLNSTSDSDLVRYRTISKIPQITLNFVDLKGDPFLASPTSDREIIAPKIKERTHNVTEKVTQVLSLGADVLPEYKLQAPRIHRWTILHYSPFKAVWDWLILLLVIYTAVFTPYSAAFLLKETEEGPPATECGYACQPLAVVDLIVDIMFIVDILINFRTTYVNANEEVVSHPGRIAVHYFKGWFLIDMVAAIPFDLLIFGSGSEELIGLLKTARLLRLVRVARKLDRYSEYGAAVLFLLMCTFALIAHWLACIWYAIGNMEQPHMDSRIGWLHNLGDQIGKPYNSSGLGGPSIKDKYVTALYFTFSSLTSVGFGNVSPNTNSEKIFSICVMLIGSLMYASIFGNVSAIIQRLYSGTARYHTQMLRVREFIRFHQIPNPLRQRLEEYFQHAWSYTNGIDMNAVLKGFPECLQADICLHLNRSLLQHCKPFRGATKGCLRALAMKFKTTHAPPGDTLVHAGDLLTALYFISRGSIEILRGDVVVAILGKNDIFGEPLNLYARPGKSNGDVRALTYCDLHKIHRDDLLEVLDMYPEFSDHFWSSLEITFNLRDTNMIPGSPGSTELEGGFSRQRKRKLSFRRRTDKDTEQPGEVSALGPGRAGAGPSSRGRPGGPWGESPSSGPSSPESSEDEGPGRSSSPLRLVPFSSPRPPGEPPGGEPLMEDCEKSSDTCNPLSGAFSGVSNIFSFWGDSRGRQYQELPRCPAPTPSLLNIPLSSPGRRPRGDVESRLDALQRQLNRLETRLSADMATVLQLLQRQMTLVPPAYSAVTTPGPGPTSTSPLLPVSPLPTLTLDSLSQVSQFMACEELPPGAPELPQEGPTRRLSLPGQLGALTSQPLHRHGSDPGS

| SMILES | hERG current change (%, negative = inhibition) at 10uM [%] |
| --- | --- |
| CCCCOC(=O)Nc1ccc(N(C)C)cc1 | 0.397 |
| Cc1cc(C(=O)COc2ccc(F)cc2Br)c(C)n1C | 8.27 |
| O=C(O)c1ccccc1-c1ccccc1C(=O)Nc1ccccc1-c1ccccc1 | 19.8 |
| O=C(COc1ccc2ccccc2c1)NC1CC1 | 2.77 |
| COc1ccc(N2CCN(CCCNC(=O)Cn3c(=O)c4cccn4c4ccccc43)CC2)cc1 | -43.7 |
| Nc1nc(NC(=O)c2ccc(F)cc2)ns1 | 7.86 |
| CCOCCc1c(O)nc(SC)[nH]c1=O | 15.9 |
| O=C(CN(C(=O)CCC(=O)Nc1ccccn1)c1ccc(F)cc1)NCCc1ccccc1 | 16.8 |
| COCCNC(=O)c1cn(C)c2ccc(S(=O)(=O)N3CCCC3)cc2c1=O | 11.6 |
| O=C1CSC(c2cccnc2)N1Cc1ccc(Cl)cc1Cl (stereo not drawn) | 0.0731 |
| Cc1nnc(SCCN2C(=O)c3ccccc3C2=O)nc1C | -1.84 |
| CCOC(=O)c1cccc2c1-c1ccccc1/C2=N/O | -2.26 |
| COc1ccc(NC(=O)CSc2nc3c(c(=O)n2-c2ccc(F)cc2)SCC3)c(OC)c1 | -19.7 |
| C#CCOCCOCCOCCNc1nc(N2CCN(C(=O)Cn3cc(CCCC[NH3+])nn3)CC2)nc(N2CCN(C(=O)Cn3cc(CC(C)O)nn3)CC2)n1.[Cl-] (stereo not drawn) | -16.7 |
| Cc1ccc(Cn2nc(C)c(NC(=O)c3cc(C)no3)c2C)cc1 | -2.22 |
| CC1(C)CC2(CC(c3ccccc3)Oc3cc(O)ccc32)NC(=S)N1 (stereo not drawn) | -1.82 |
| CN1CCC(N(C)S(=O)(=O)c2ccc(F)cc2F)CC1 | 3.63 |
| CN(C)c1ccnc2sc3c(SCc4ccc(Cl)cc4)ncnc3c12 | 11.5 |
| CCC(C)N(C(=O)CSc1nc(C)c(C)c(C)c1C#N)C1CCS(=O)(=O)C1 (stereo not drawn) | 8.92 |
| Cc1ccc(-n2c(Cn3ncc4ccccc4c3=O)n[nH]c2=S)cc1 | -2.75 |
| CC(=O)c1cc2c(cc1NS(=O)(=O)c1ccc(C)cc1)OCO2 | -10.1 |
| COc1ccc(OC)c(Nc2nc(NCCCN(C)C)nc(N)c2[N+](=O)[O-])c1 | -5.73 |
| COc1ccccc1N(CC(=O)N/N=C/c1ccc(SC)cc1)S(C)(=O)=O | -3.36 |

| SMILES | hERG current change (%, negative = inhibition) at 10uM [%] |
| --- | --- |
| COc1cccc(C(C(=O)NC2CCCC2)N(C(=O)c2ccco2)c2cccc(C(C)=O)c2)c1OC (stereo not drawn) | 13.9 |
| O=[N+]([O-])c1ccc(/C=C/c2ccc3cccc(O)c3n2)cc1 | 18.6 |
| COc1cc(C(=O)OC2CSCC2NC(=O)c2ccccc2)cc(OC)c1OC (stereo not drawn) | -19.5 |
| O=C(Nc1ccc(NC(=O)C2CC2)nc1)c1ccccn1 | -8.12 |
| CN(C)CCN1C(=O)C(=O)/C(=C(/O)c2ccc(S(=O)(=O)N3CCOCC3)cc2)C1c1ccc(Br)cc1 (stereo not drawn) | 10 |
| Cn1c(SCC(=O)N2CCOCC2)nnc1-c1ccccc1 | 4.92 |
| O=C(O)CN1C(=O)CN=C(c2ccccn2)c2cc(Cl)ccc21 | 17.5 |
| O=c1nc(-c2ccccc2)cc(C(F)(F)F)[nH]1 | 17.8 |
| CCOc1ccc(-n2nnnc2-c2nc3ccccc3s2)cc1 | 11.9 |
| CC(=O)c1cccc(NC(=O)N2CC(C)OC(C)C2)c1 (stereo not drawn) | 10.4 |
| Cn1cnc([N+](=O)[O-])c1N=C(N)N | 17.5 |
| O=C(CSCc1c(F)cccc1F)Nc1ccccc1 | 12.3 |
| COc1ccc(CCNC(=O)Cn2nc([N+](=O)[O-])c(Br)c2C)cc1OC | -0.503 |
| Cc1ccc(CC(=O)NCc2ccc(F)cc2)cc1 | 5.55 |
| CCCc1nnc(SCC(=O)Nc2cccc(Cl)c2Cl)o1 | 3.7 |
| CCN(CC(=O)NCc1ccc(F)cc1)C(=O)C1CCN(C(=O)Nc2ccccc2)CC1 | -7.79 |
| Cc1csc2nc(O)c(C(=O)NCC3CCCO3)c(=O)n12 (stereo not drawn) | 1.89 |
| C=CCC(CC=C)(NC(=O)c1ccccc1)c1ccccc1 | 4.4 |
| Cc1ccc(C(=O)/C=C2\NCC(C)NC2=O)cc1 (stereo not drawn) | 6.43 |
| CN(Cc1nc2ccccc2n1C)C(=O)c1ccco1 | 16.5 |
| CCOC(=O)C1CCCN(C(=O)CSCc2ccccc2)C1 (stereo not drawn) | 0.048 |
| CC1c2cc3c(cc2CCN1CC(=O)Nc1ccc(S(=O)(=O)N2CCCC2)cc1)OCCCO3 (stereo not drawn) | 3.55 |
